Test results as given in US20240199692A1 (priority 2019, published 2024).
Not every detail of the peptide structures is certain; ends, links or a residue may be inferred.

Biological target: T1, MMP2 (Homo sapiens, UniProt P08253)
T1 sequence (P08253 110-660): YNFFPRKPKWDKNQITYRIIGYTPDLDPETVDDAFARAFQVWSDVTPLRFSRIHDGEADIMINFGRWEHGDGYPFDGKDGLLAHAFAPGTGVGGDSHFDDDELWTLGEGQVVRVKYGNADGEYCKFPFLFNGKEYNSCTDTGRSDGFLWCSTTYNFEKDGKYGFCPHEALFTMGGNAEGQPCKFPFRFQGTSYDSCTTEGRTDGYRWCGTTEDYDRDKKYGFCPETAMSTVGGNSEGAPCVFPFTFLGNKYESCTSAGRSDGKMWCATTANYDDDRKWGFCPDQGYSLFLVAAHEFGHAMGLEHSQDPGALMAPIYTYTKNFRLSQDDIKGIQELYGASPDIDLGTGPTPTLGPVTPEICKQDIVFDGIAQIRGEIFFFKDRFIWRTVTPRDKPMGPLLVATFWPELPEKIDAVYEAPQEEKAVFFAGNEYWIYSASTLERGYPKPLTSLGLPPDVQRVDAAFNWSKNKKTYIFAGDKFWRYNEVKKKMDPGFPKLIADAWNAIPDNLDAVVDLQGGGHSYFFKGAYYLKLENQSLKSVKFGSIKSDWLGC
Assay: Inhibitory effects on human MMP2 (Method 1), enzyme assay with MOCAc-Pro-Leu-Gly-Leu-A2pr(Dnp)-Ala-Arg-NH2 substrate, 96-well
Assay type: biochemical
Conditions: Test Example No. 1-1 (Method 1, 96-well microplate)
Method: In a reaction solution [50 mmol/L Tris-HCl (pH 7.5), 150 mmol/L NaCl, 10 mmol/L CaCl2, 0.05% Brij L23], 100 μg/mL human recombinant MMP2 enzyme and 1 mmol/L 4-Aminophenylmercuric acetate were mixed together, and reacted at 37° C. for 60 minutes. The human MMP2 activated through the reaction was poured into a 96-well microplate to reach a final concentration of 0.7 or 7 ng/mL.

Row | SMILES | IC50 [nM]
1 | CC[C@H](C)[C@@H](C(=O)N1CCC[C@H]1CC(N)=O)N(C)C(=O)[C@H](CC(C)C)NC(=O)[C@H](CCN)NC(=O)[C@H](CC(=O)O)NC(=O)[C@@H]1CCN1C(=O)CCCNC(=O)c1ccc(Oc2ccc(C(N)=O)cc2)cc1 [Compound 300] | 0.86
2 | CC[C@H](C)[C@@H](C(=O)N1CCC[C@H]1CC(N)=O)N(C)C(=O)[C@H](CC(C)C)NC(=O)[C@H](CCN)NC(=O)[C@H](CC(=O)O)NC(=O)[C@H](CCC(=O)O)N(C)C(=O)CCCNC(=O)c1ccc(Oc2ccc(C(N)=O)cc2)cc1 [Compound 304] | 1.05
3 | CC(C)C[C@H](NC(=O)[C@H](CCN)NC(=O)[C@H](CC(=O)O)NC(=O)[C@H](CCCCN)N(C)C(=O)CCCNC(=O)c1ccc(Oc2ccc(C(N)=O)cc2)cc1)C(=O)N(C)[C@@H](CCC(=O)O)C(=O)N1CCC[C@H]1CC(N)=O [Compound 311] | 4.5
4 | CC[C@H](C)[C@@H](C(=O)N1CCC[C@H]1CC(N)=O)N(C)C(=O)[C@H](CC(C)C)NC(=O)[C@H](CCN)NC(=O)[C@H](CC(=O)O)NC(=O)[C@H](CCC(=O)O)N(C)C(=O)CCCCNC(=O)c1ccc(Oc2ccc(C(N)=O)cc2)cc1 [Compound 318] | 0.15
5 | CC(C)C[C@H](NC(=O)[C@H](CCN)NC(=O)[C@H](CC(=O)O)NC(=O)[C@@H](NC(=O)CCCCNC(=O)c1ccc(Oc2ccc(C(N)=O)cc2)cc1)[C@@H](C)O)C(=O)N(C)[C@@H](CCC(=O)O)C(=O)N1CCC[C@H]1CC(N)=O [Compound 319] | 0.75
6 | CC(C)C[C@H](NC(=O)[C@H](CCN)NC(=O)[C@H](CC(=O)O)NC(=O)[C@H]1CCCN1C(=O)CCCCNC(=O)c1ccc(Oc2ccc(C(N)=O)cc2)cc1)C(=O)N(C)[C@@H](CCC(=O)O)C(=O)N1CCC[C@H]1CC(N)=O [Compound 321] | 5.8
7 | CC[C@H](C)[C@@H](C(=O)N1CCC[C@H]1CC(N)=O)N(C)C(=O)[C@H](CC(C)C)NC(=O)[C@H](CCN)NC(=O)[C@H](CC(=O)O)NC(=O)[C@H](CCSC)N(C)C(=O)CCCCNC(=O)c1ccc(Oc2ccc(C(N)=O)cc2)cc1 [Compound 325] | 0.17
8 | CC(C)C[C@H](NC(=O)[C@H](CCN)NC(=O)[C@H](CC(=O)O)NC(=O)[C@@H](Cc1c[nH]cn1)NC(=O)CCCCNC(=O)c1ccc(Oc2ccc(C(N)=O)cc2)cc1)C(=O)N(C)[C@@H](CCC(=O)O)C(=O)N1CCC[C@H]1CC(N)=O [Compound 329] | 2.5
9 | CC(C)C[C@H](NC(=O)[C@H](CCN)NC(=O)[C@H](CC(=O)O)NC(=O)[C@@H](CS)NC(=O)CCCCNC(=O)c1ccc(Oc2ccc(C(N)=O)cc2)cc1)C(=O)N(C)[C@@H](CCC(=O)O)C(=O)N1CCC[C@H]1CC(N)=O [Compound 331] | 0.22
10 | CC(C)C[C@H](NC(=O)[C@H](CCN)NC(=O)[C@H](CC(=O)O)NC(=O)[C@@H](CCCNC(=N)N)NC(=O)CCCCNC(=O)c1ccc(Oc2ccc(C(N)=O)cc2)cc1)C(=O)N(C)[C@@H](CCC(=O)O)C(=O)N1CCC[C@H]1CC(N)=O [Compound 333] | 0.84
11 | CC[C@H](C)[C@@H](C(=O)N1CCC[C@H]1CC(N)=O)N(C)C(=O)[C@H](CC(C)C)NC(=O)[C@H](CCN)NC(=O)[C@H](CC(=O)O)NC(=O)[C@H](CCCCNC(C)=O)NC(=O)CCCCNC(=O)c1ccc(Oc2ccc(C(N)=O)cc2)cc1 [Compound 336] | 0.13
12 | CC[C@H](C)[C@@H](C(=O)N1CCC[C@H]1CC(N)=O)N(C)C(=O)[C@H](CC(C)C)NC(=O)[C@H](CCN)NC(=O)[C@H](CC(=O)O)NC(=O)[C@H](CCCNC(N)=O)NC(=O)CCCCNC(=O)c1ccc(Oc2ccc(C(N)=O)cc2)cc1 [Compound 338] | 0.13
13 | CC(C)C[C@H](NC(=O)[C@H](CCN)NC(=O)[C@H](CC(=O)O)NC(=O)C[C@@H](NC(=O)CCCCNC(=O)c1ccc(Oc2ccc(C(N)=O)cc2)cc1)C(=O)O)C(=O)N(C)[C@@H](CCC(=O)O)C(=O)N1CCC[C@H]1CC(N)=O [Compound 343] | 7
14 | CSCC[C@H](NC(=O)CCCCNC(=O)c1ccc(Oc2ccc(C(N)=O)cc2)cc1)C(=O)N[C@@H](CC(=O)O)C(=O)N[C@@H](CCN)C(=O)N[C@@H](CC(C)C)C(=O)N(C)[C@@H](CCC(=O)O)C(=O)N1CCC[C@H]1CC(N)=O [Compound 346] | 0.11
15 | CC[C@H](C)[C@@H](C(=O)N1CCC[C@H]1CC(N)=O)N(C)C(=O)[C@H](CC(C)C)NC(=O)[C@H](CCN)NC(=O)[C@H](CC(=O)O)NC(=O)[C@H](NC(=O)CCCCNC(=O)c1ccc(Oc2ccc(C(N)=O)cc2)cc1)[C@H](C)O [Compound 348] | 0.083
16 | CC(C)C[C@H](NC(=O)[C@H](CCN)NC(=O)[C@H](CC(=O)O)NC(=O)[C@H](NC(=O)CCCNC(=O)c1ccc(Oc2ccc(C(N)=O)cc2)cc1)[C@H](C)O)C(=O)N(C)[C@@H](CCC(=O)O)C(=O)N1CCC[C@H]1CC(N)=O [Compound 352] | 0.26
17 | CC(C)C[C@H](NC(=O)[C@H](CCN)NC(=O)[C@H](CC(=O)O)NC(=O)[C@H](CCC(N)=O)NC(=O)CCCCNC(=O)c1ccc(Oc2ccc(C(N)=O)cc2)cc1)C(=O)N(C)[C@@H](CCC(=O)O)C(N)=O [Compound 380] | 0.75
18 | CC[C@H](C)[C@@H](C(=O)N1CCC[C@H]1CC(=O)N[C@H](CCCNC(=N)N)C(N)=O)N(C)C(=O)[C@H](CC(C)C)NC(=O)[C@H](CCN)NC(=O)[C@H](CC(=O)O)NC(=O)[C@H](CCC(N)=O)NC(=O)CCCCNC(=O)c1ccc(Oc2ccc(C(N)=O)cc2)cc1 [Compound 387] | 0.12
19 | CC[C@H](C)[C@@H](C(=O)N1CCC[C@H]1C(N)=O)N(C)C(=O)[C@H](CC(C)C)NC(=O)[C@H](CCN)NC(=O)[C@H](CC(=O)O)NC(=O)[C@H](CCC(N)=O)NC(=O)CCCCNC(=O)c1ccc(Oc2ccc(C(N)=O)cc2)cc1 [Compound 392] | 0.15
20 | CC(C)C[C@H](NC(=O)[C@H](CCN)NC(=O)[C@H](CC(=O)O)NC(=O)[C@H](CCC(=O)O)NC(=O)CCCCNC(=O)c1ccc(Oc2ccc(C(N)=O)cc2)cc1)C(=O)N(C)[C@@H](CCC(=O)O)C(=O)N1CCC[C@H]1C(N)=O [Compound 395] | 0.48
21 | CC[C@H](C)[C@@H](C(=O)N1CCC[C@H]1C(N)=O)N(C)C(=O)[C@H](CC(C)C)NC(=O)[C@H](CCN)NC(=O)[C@H](CC(=O)O)NC(=O)[C@H](NC(=O)CCCCNC(=O)c1ccc(Oc2ccc(C(N)=O)cc2)cc1)[C@H](C)O [Compound 398] | 0.12
22 | CC[C@H](C)[C@@H](C(=O)N1CCC[C@H]1C(=O)N[C@H](CCCNC(=N)N)C(N)=O)N(C)C(=O)[C@H](CC(C)C)NC(=O)[C@H](CCN)NC(=O)[C@H](CC(=O)O)NC(=O)[C@H](CCC(N)=O)NC(=O)CCCCNC(=O)c1ccc(Oc2ccc(C(N)=O)cc2)cc1 [Compound 401] | 0.43
23 | CC(C)C[C@H](NC(=O)[C@H](CCN)NC(=O)[C@H](CC(=O)O)NC(=O)[C@H](CCC(N)=O)NC(=O)CCCCNC(=O)c1ccc(Oc2ccc(C(N)=O)cc2)cc1)C(=O)N(C)[C@@H](CCC(=O)O)C(=O)NCCC(N)=O [Compound 412] | 0.3
24 | CC(C)C[C@H](NC(=O)[C@H](CCN)NC(=O)[C@H](CC(=O)O)NC(=O)[C@H](CCC(N)=O)NC(=O)CCCCNC(=O)c1ccc(Oc2ccc(C(N)=O)cc2)cc1)C(=O)N(C)[C@@H](CCC(=O)O)C(=O)NCCCC(N)=O [Compound 414] | 0.27
25 | CC(C)C[C@H](NC(=O)[C@H](CCN)NC(=O)[C@H](CC(=O)O)NC(=O)[C@H](CCC(N)=O)NC(=O)CCCCNC(=O)c1ccc(Oc2ccc(C(N)=O)cc2)cc1)C(=O)N(C)[C@@H](CCC(=O)O)C(=O)N[C@@H](CCN)C(N)=O [Compound 423] | 1.9
